The structures appear in SMILES notation. Among all 150,000 compounds or so, about 540 (0.36%) showed an effect of 50% or more. The list shows a part of the results.

The subject of this experiment is Plasmodium falciparum. The experiment can be described thus: Primary screen in NF54 nanoGlo assay, in single point, at 2uM, 72h; a lower Z score goes with more inhibition. The class given is functional, Erythrocyte. The following applies: timepoint 72 hour.
Consider `CCCC(CCC)N[C@H](CO)Cc1ccccc1`, for which the “% Inhibition” value is recorded as 12% and the Z score is reported as -1.61.

Turning to `Fc1cc(Cl)cnc1N1CCC(CN2CCOCC2)CC1`, the “% Inhibition” value is given as -10% and the Z score was determined as 1.05.

In the case of `Cc1ccc(C)c(-c2nc(Cn3c(=O)c4c(C)cc(C)nc4n(C)c3=O)c(C)o2)c1`, the “% Inhibition” value stood at 34% and the Z score was -4.77.

On to `O=C(Nc1cc(C(F)(F)F)c[nH]c1=O)[C@@H]1Cc2ccccc2O1`, for which the “% Inhibition” value is -8% and the Z score was found to be 1.3.

`CC1CC(c2ccccc2)C(C)N1C(=O)c1ncncc1Cl` (stereo not drawn): the “% Inhibition” value was -7% and the Z score came to 0.74.

On to `Cc1[nH]c(=O)[nH]c(=O)c1N(CCF)CCF`, for which the “% Inhibition” value came to 4% and the Z score is -0.78.

For `COCCCNc1ncccc1OC(F)F`, the “% Inhibition” value was 2% and the Z score is reported as -0.33.

`O=C(NCCc1ccc(N2CCCC2)cc1)c1ccccc1`: the “% Inhibition” value was -1% and the Z score was 0.17.

For the compound `CCC(CC)C(=O)N1CCC2(CCCN(C)[C@@H]2C(=O)N2CCCC2)CC1`, the “% Inhibition” value was found to be 2% and the Z score was -0.41.

As for `CC(C)c1nnc(Cn2nc(C(N)=O)nc2Cc2ccccc2)s1`, the “% Inhibition” value was -7% and the Z score is 1.27.

Turning to `Cc1nc(-c2cc(S(=O)(=O)N3CCC(C(=O)N4CCC(C)CC4)CC3)c(C)s2)no1`, the “% Inhibition” value is -22% and the Z score amounted to 1.9.

Consider `Cc1nc(C(=O)NCc2oc3ccc(F)cc3c2C)c(=O)[nH]c1C`, for which the “% Inhibition” value is listed as -7% and the Z score was found to be 1.47.

For `COc1ccc(CN2CCN(C3CCN(C(C)=O)CC3)C[C@@H]2CCO)c(C)c1C`, the “% Inhibition” value is given as -24% and the Z score was 2.89.

`COc1cc([C@H](C)NC(=O)N(C)Cc2nnc[nH]2)cc2ccccc12`: the “% Inhibition” value is on record as -10% and the Z score was found to be 0.98.

Turning to `O=C(Cn1nc(-c2ccc3c(c2)OCCO3)ccc1=O)NCc1ccc2c(c1)OCO2`, the “% Inhibition” value came out at 1% and the Z score is -0.09.

As for `COc1ccc(-c2nc(C)nc3c2cnn3C)c(OC)c1OC`, the “% Inhibition” value was found to be 2% and the Z score is given as -0.33.

Regarding `CO[C@@H](C)c1nc(C)c(C(=O)Nc2nc(-c3ccc(C)s3)c(C)s2)s1`, the “% Inhibition” value was found to be 12% and the Z score was -1.76.

For the compound `CN(CC1(N(C)C)CCC1)C(=O)c1nc2c(s1)CCC2`, the “% Inhibition” value is listed as -8% and the Z score is recorded as 1.43.

For `O=C1[C@@H](Nc2ncccn2)CCN1c1ccc(Cl)c(F)c1`, the “% Inhibition” value is on record as -11% and the Z score worked out at 1.1.

On to `NC(=O)CC[C@@H]1N[C@]2(C(=O)Nc3ccccc32)[C@@H]2C(=O)N(c3ccccc3C(F)(F)F)C(=O)[C@H]12`, for which the “% Inhibition” value is given as -5% and the Z score turned out to be 0.57.

For the compound `O=C(CC1(C(=O)O)Cc2ccccc2C1)Nc1ccc2c(c1)CCC2`, the “% Inhibition” value is recorded as -6% and the Z score worked out at 0.6.

On to `Cc1cnc(NCc2cnn3c2CCCC3)nc1`, for which the “% Inhibition” value is -6% and the Z score is 0.85.

On to `COCCc1nc(C)c([C@H](C)Nc2ccc3c(c2)CCC(=O)N3)s1`, for which the “% Inhibition” value is listed as -15% and the Z score came out at 1.74.

With `Cn1cc(-c2nn(C)cc2C(=O)NC2CCC(C(F)F)CC2)cn1` (stereo not drawn), the “% Inhibition” value is -9% and the Z score was 1.18.

Take `CCOc1ccc(NC(=O)[C@H](C)OC(=O)c2cccc(Cl)c2)c(NC(=O)c2cccc(Cl)c2)c1`: the “% Inhibition” value came out at 8% and the Z score is -0.95.

`O=C(c1n[nH]cc1Cl)N1CCC[C@H](c2[nH]ncc2-c2ccc(F)cc2)C1`: the “% Inhibition” value is listed as -10% and the Z score was 1.97.

`O=S(=O)(c1cccc2nsnc12)N1CC(N2CCCC2)C1`: the “% Inhibition” value is recorded as -21% and the Z score was 2.4.

Regarding `Cn1cc(CN2CCN(c3cccc(Cl)c3)CC2)c(-c2ccc3c(c2)OCCO3)n1`, the “% Inhibition” value is -11% and the Z score is 1.14.

Consider `CNC(=O)c1nc(/C=C/C2CCCCC2)n[nH]1`, for which the “% Inhibition” value turned out to be 3% and the Z score is listed as -0.37.

Consider `CC(C)c1ccc(N[C@@H](C)CN2CCOCC2)nn1`, for which the “% Inhibition” value was -1% and the Z score was 0.16.

On to `Cc1n[nH]c(=O)nc1Nc1ccc2c(c1)OCCO2`, for which the “% Inhibition” value is listed as -6% and the Z score is on record as 0.75.

On to `CC[C@@H](C)[C@H](NC(=O)N(CC)c1ccccc1)C(=O)O`, for which the “% Inhibition” value amounted to 8% and the Z score is on record as -1.02.

In the case of `Cc1noc2nc(C3CC3)cc(C(=O)NC3CCN4CCCCC34)c12` (stereo not drawn), the “% Inhibition” value was found to be 6% and the Z score is recorded as -0.91.

Regarding `Cc1cc(-c2noc(CNC(=O)c3scnc3C)n2)no1`, the “% Inhibition” value came out at 10% and the Z score is -1.29.

For the compound `CCNC(=O)C1Cc2cc(C(F)(F)F)ccc2N2CCN(Cc3ccc(F)cc3)CC12` (stereo not drawn), the “% Inhibition” value came out at 3% and the Z score was -0.31.

For the compound `Cc1cc(Br)cc(C(=O)NC[C@@H](C)CCO)c1`, the “% Inhibition” value is given as -7% and the Z score is 0.67.

Consider `Cc1cc(CN(C)C(=O)c2cn(C(C)C)nn2)no1`, for which the “% Inhibition” value is on record as -9% and the Z score came to 1.14.

Take `Cc1nc2ccccc2c(=O)n1-n1c(-c2ccccc2)cc(C(F)(F)F)c(C#N)c1=O`: the “% Inhibition” value was found to be 2% and the Z score was -0.3.

`C[C@H]1CCN(Cc2ccncc2)CCN1Cc1ccccc1`: the “% Inhibition” value is -16% and the Z score stood at 3.16.

Consider `Oc1ccc(CN(Cc2ccco2)c2nc3ccccc3o2)cc1`, for which the “% Inhibition” value is listed as 35% and the Z score is reported as -3.93.

With `CN(CCCS(C)(=O)=O)Cc1cc(F)c(F)cc1F`, the “% Inhibition” value is -13% and the Z score was found to be 1.47.

With `O=C(c1nnc(C(=O)N2CCCCC2)nn1)N1CCCCC1`, the “% Inhibition” value is 4% and the Z score is listed as -0.48.

For the compound `CC1CC(C)CN(C(=O)C2CCN(c3ncnc4c3nc3n4CCCCC3)CC2)C1` (stereo not drawn), the “% Inhibition” value is given as -5% and the Z score worked out at 0.81.

Regarding `CC1(C)C(=O)OCCN1S(=O)(=O)c1ccc(Cl)cc1`, the “% Inhibition” value is given as -4% and the Z score worked out at 0.54.

With `Cc1ccc(NC(=O)[C@H](C(C)C)N2CCCS2(=O)=O)c(F)c1Cl`, the “% Inhibition” value is listed as -9% and the Z score is 1.72.

On to `O=C(Nc1ccccc1N1CCCC1=O)c1cc2cc(Cl)ccn2n1`, for which the “% Inhibition” value is given as -7% and the Z score stood at 0.74.

Take `Cc1csc(S(=O)(=O)N2CCCc3ncccc32)c1`: the “% Inhibition” value is -8% and the Z score is 1.37.

Turning to `CN1C[C@@H](Cn2cc(Br)cn2)CC1=O`, the “% Inhibition” value was -15% and the Z score is 1.69.

As for `COC(=O)c1[nH]c(C)cc1NC(=O)c1nc(C(C)C)cs1`, the “% Inhibition” value is listed as -16% and the Z score turned out to be 3.1.

With `Cc1ccc(N2CCOC2=O)c(C2=CCCCC2)c1`, the “% Inhibition” value is -5% and the Z score is reported as 0.7.

As for `Cc1nnc(N2CCC[C@H](c3nc(N(C)C)no3)C2)c(C#N)c1C`, the “% Inhibition” value is reported as -17% and the Z score amounted to 2.65.

`CN(Cc1ccn(C)n1)C(=O)c1cc(S(=O)(=O)N(C)C)c(Cl)cc1Cl`: the “% Inhibition” value was 30% and the Z score was -0.7.

For `O=C(C1=CCCCC1)N(CC1CCN(C2Cc3ccccc3C2)CC1)C[C@H]1CCCO1`, the “% Inhibition” value is reported as -12% and the Z score turned out to be 1.58.

As for `Cc1cc(-n2nnc3ccccc32)nc(C)n1`, the “% Inhibition” value was determined as 35% and the Z score is reported as -0.8.

The % Inhibition is the relative decrease from the control value, in per cent.
